Data as given in patent US8829203B2, “3′,6-substituted indirubins and their biological applications” (Centre National de la Recherche Scientifique (CNRS), priority 2008, dated 2014).
Where a name gives a salt, the structure may show the parent alone. Read-outs that look alike come from different tables or passages of the source.

How the values were obtained:
[1] = test system: SH-SY5Y neuroblastoma cells; assay: cells; conditions: Homo sapiens, 48 h, read-out: SH-SY5Y cell survival IC50, 48 h incubation, MTS reduction
[2] = test system: SH-SY5Y neuroblastoma cells; conditions: read-out: SH-SY5Y cell survival IC50; 48 h incubation, MTS reduction

| SMILES | IC50 [1] | IC50 [2] |
| --- | --- | --- |
| CN(CCO/N=C1/C(=C2/C(=O)Nc3cc(Br)ccc32)Nc2ccccc21)CC(O)CO (stereo not drawn) [Cpd 10, (2′Z-3′E)-6-Bromoindirubin-3′-(O-{2-[-methyl, N-(2,3-dihydroxypropyl)amino]ethyl}oxime]] | 5.8 µM | – |
| O=C1Nc2cc(Br)ccc2/C1=C1/Nc2ccccc2/C1=N\OCC(O)CO (stereo not drawn) [Cpd 3, (2′Z-3′E)-6-Bromoindirubin-3′-[O-(2,3-dihydroxypropyl)-oxime]] | 0.94 µM | – |
| O=C1Nc2cc(Br)ccc2/C1=C1/Nc2ccccc2/C1=N\OCCN1CCNCC1 [Cpd 22, (2′Z-3′E)-6-Bromoindirubin-3′-[O-(2-piperazine-1-ylethyl)oxime]Dihydrochloride] | – | 5.9 µM |
| O=C1Nc2cc(Br)ccc2/C1=C1/Nc2ccccc2/C1=N\OCCN1CCCC1 [Cpd 18, (2′Z-3′)-6-Bromoindirubin-3′-[O-(2-pyrrolidin-1-ylethyl)oxime]Hydrochloride] | – | 4.2 µM |
| CCN(CC)C(=O)O/N=C1/C(=C2/C(=O)Nc3cc(Br)ccc32)Nc2ccccc21 [Cpd 4, (2′Z-3′E)-6-Bromoindirubin-3′-[O-(N,N-diethylcarbamyl)-oxime]] | > 100 µM | – |
| CCN(CC)CCO/N=C1/C(=C2/C(=O)Nc3cc(Br)ccc32)Nc2ccccc21 [Cpd 17, (2′Z-3′E)-6-Bromoindirubin-3′-[O-(2-diethylaminoethyl)oxime]Hydrochloride] | – | > 100 µM |
| O=C1Nc2cc(Br)ccc2/C1=C1/Nc2ccccc2/C1=N\OCCO [Cpd 2, (2′Z-3′E)-6-Bromoindirubin-3′-[O-(2-hydroxyethyl)-oxime]] | > 100 µM | – |
| O=C1Nc2cc(Br)ccc2/C1=C1/Nc2ccccc2/C1=N\OCCN1CCN(CCOCCO)CC1 [Cpd 15, (2′Z-3′E)-6-Bromoindirubin-3′-[O-(2-{4-[2-(2-hydroxyethoxy)-ethyl]piperazin-1-yl}ethyl)oxime]] | – | 94.4 µM |
| CN1CCN(CCO/N=C2/C(=C3/C(=O)Nc4cc(Br)ccc43)Nc3ccccc32)CC1 [Cpd 23, (2′Z-3′E)-6-Bromoindirubin-3′-{O-[2-(4-methylpiperazin-1-yl)ethyl]oxime}Dihydrochloride] | – | 5.4 µM |
| CN(CCON=C1C(=C2C(=O)Nc3cc(Br)ccc32)Nc2ccccc21)CC(O)CO (stereo not drawn) [Cpd 21] | 6 µM | – |
| CCN(CC)CCO/N=C1/C(=C2/C(=O)Nc3cc(Br)ccc32)Nc2ccccc21 [Cpd 6, (2′Z-3′E)-6-Bromoindirubin-3′-[O-(2-diethylaminoethyl)-oxime]] | 78 µM | – |
| O=C1Nc2cc(Br)ccc2/C1=C1/Nc2ccccc2/C1=N\OCCN1CCCC1 [Cpd 7, (2′Z-3′E)-6-Bromoindirubin-3′-[O-(2-pyrrolidin-1-ylethyl)oxime]] | 5.5 µM | – |
| O=C1Nc2cc(Br)ccc2/C1=C1/Nc2ccccc2/C1=N\OCCBr [Cpd 1, (2′Z-3′E)-6-Bromoindirubin-3-[O-(2-bromoethyl)-oxime]] | > 100 µM | – |
| COCCN1CCN(CCO/N=C2/C(=C3/C(=O)Nc4cc(Br)ccc43)Nc3ccccc32)CC1 [Cpd 25] | – | > 100 µM |
| CN1CCN(CCO/N=C2/C(=C3/C(=O)Nc4cc(Br)ccc43)Nc3ccccc32)CC1 [Cpd 12, (2′Z-3′E)-6-Bromoindirubin-3′-{O-[2-(4-methyl-piperazin-1-yl)ethyl]oxime}] | 5.4 µM | – |
